Results taken from PMC10994765 (Neuron, 2024).

B1: astrocyte-secreted ApoE2 lipoprotein (human Apolipoprotein E2) (natural protein)
chain: not shown
B2: lipidated recombinant ApoE2 (rApoE2-DMPC) (natural protein)
chain: not shown

Experiments:
negative stain TEM [1] = molecular target: the molecule itself; assay: negative stain TEM
negative stain TEM [2] = molecular target: the molecule itself; assay: negative stain TEM; remark: listed apart in the source

| Protein | stoichiometry N (negative stain TEM [1]) | stoichiometry N (negative stain TEM [2]) |
| --- | --- | --- |
| B1 | 2 |  |
| B2 |  | 2 |

Where two headings read alike, the source gives them in different places.
